According to PMC4336329 (PLoS ONE, 2015):
Hit rate of the full screen: of about 310,000 compounds, about 2,200 (0.71%) showed an effect of 50% or more. The effect is printed as a negative number. The list shows a part of the results.

What follows are molecules tested against human ether-à-go-go-related gene (hERG) potassium channel (human, UniProt Q12809) (assay: primary screen, population patch clamp on CHO cells stably expressing hERG).
Sequence of human ether-à-go-go-related gene (hERG) potassium channel (Q12809 whole entry, looked up): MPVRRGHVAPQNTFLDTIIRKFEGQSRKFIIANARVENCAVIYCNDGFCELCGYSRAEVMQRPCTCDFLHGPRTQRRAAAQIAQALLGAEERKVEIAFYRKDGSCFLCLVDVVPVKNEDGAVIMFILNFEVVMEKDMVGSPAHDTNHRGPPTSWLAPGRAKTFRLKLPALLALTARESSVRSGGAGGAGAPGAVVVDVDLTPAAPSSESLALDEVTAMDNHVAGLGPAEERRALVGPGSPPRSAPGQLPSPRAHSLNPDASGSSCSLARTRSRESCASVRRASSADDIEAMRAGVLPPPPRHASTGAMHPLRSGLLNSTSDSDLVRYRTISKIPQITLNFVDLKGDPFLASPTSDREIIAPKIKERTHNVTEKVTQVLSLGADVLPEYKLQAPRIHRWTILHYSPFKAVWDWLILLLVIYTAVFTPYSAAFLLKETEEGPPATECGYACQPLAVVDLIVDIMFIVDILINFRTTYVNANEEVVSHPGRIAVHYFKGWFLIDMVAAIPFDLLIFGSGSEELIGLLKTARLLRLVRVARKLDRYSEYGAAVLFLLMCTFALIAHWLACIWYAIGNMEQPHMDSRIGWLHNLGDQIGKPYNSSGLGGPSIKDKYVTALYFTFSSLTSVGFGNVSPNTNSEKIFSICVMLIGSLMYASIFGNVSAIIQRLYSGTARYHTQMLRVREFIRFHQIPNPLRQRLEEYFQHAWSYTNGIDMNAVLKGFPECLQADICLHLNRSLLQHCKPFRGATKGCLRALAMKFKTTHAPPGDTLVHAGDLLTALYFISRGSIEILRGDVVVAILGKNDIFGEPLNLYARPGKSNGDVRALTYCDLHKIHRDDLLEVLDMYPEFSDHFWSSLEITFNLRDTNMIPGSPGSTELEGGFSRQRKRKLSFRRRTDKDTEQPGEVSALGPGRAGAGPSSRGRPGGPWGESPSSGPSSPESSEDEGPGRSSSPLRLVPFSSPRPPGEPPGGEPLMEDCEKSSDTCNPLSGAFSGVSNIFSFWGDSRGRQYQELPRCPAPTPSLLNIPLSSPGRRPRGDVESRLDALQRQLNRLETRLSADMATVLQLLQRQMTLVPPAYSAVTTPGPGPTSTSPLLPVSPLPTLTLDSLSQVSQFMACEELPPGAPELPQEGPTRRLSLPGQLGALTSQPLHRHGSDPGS

Structure (SMILES)	hERG current change (%, negative = inhibition) at 1uM [%]
CN1CCN(c2nc(NCCOC34CC5CC(CC(C5)C3)C4)nc(OCC(F)(F)F)n2)CC1	4.54
CC1(c2ccccc2)NC(=O)N(CC(=O)Nc2ccc([N+](=O)[O-])cc2)C1=O (stereo not shown)	-12.7
COc1ccsc1C(=O)N1CCN(Cc2ccc3c(c2)OCO3)CC1	0.457
N#Cc1sc(=O)[nH]c1Cl	12.4
COc1cccc(N2CN(C3CCCCC3)CNC2=S)c1	12.9
CCOc1ccccc1Nc1ccnc2cc(Cl)ccc12	-2.44
CC(=O)NC12CC3CC(C1)CC(C(=O)Nc1nc4ccc(F)cc4s1)(C3)C2	-12.6
Cc1cc(C)n2nc(C(=O)Oc3ccc4c(c3)OCO4)nc2n1	24.6
CC(C)COC(=O)/C(C#N)=C/c1c[nH]c2ccccc12	6.85
COc1ccccc1/C=C/C=N/NC(=O)c1ccc(=O)n(C)c1	5.36
O=C(c1cn(-c2ccccc2)nc1-c1ccc(F)cc1)N1CCOCC1	-2.32
Cc1cc(C)c(C)c(S(=O)(=O)NCC(=O)Nc2ccc(F)cc2)c1C	7.54
COc1ccccc1CNC(=O)COC(=O)c1ccc(N2CCCC2=O)cc1	15.7
C/C(NCCN1CCOCC1)=C(\C#N)C(N)=O	-3.71
CC(=O)N1CCc2cc(S(=O)(=O)CCC(=O)NCc3ccc(F)cc3)ccc21	13.7
COc1ccc(-c2cnc(N)n2C)cc1	-7
COc1ccc(S(=O)(=O)NCC(c2ccc3c(c2)OCO3)N2CCN(C)CC2)cc1OC (stereo not shown)	2.62
O=C(CC1Sc2ccccc2NC1=O)NNC(=O)Nc1ccc(Cl)cc1 (stereo not shown)	9.26
COC(=O)Cn1cnc2scc(-c3ccc(C)cc3)c2c1=O	10.5
CCc1ccc(S(=O)(=O)Nc2nccs2)cc1	11.8
O=C(CN1CCCSc2ccccc21)N1CCN(S(=O)(=O)c2cccc(F)c2)CC1	2.18
Cc1ccc(CS(=O)(=O)c2nsc(C)c2C#N)cc1	11.5

Structure (SMILES)	hERG current change (%, negative = inhibition) at 1uM [%]
CC(=O)C1=C(O)C(=O)N(c2ccc(Br)cc2)C1c1ccc(Br)cc1 (stereo not shown)	10.2
CCC(C)NC(=O)C1=C(C)C(=O)OC12CCC(C)CC2 (stereo not shown)	15.1
COc1ccccc1CCNC(=O)C1CCCO1 (stereo not shown)	6.2
O=C(COc1ccccc1/C=C\c1[nH]c(=O)[nH]c(=O)c1[N+](=O)[O-])Nc1ccccc1	10.9
Cc1sc2nc(CSC(C)C(=O)Nc3ccccn3)[nH]c(=O)c2c1C (stereo not shown)	0.571
Cc1nc(NC(=O)CSc2nncs2)c(Cl)cc1Cl	10.5
O=C(N/N=C/c1coc2ccccc2c1=O)c1ccccc1Br	5.95
CCOC(=O)Cn1c(=O)oc2cc(S(=O)(=O)Nc3ccc(N(CC)CC)cc3C)ccc21	6.25
COc1ccc(-c2nnc(SCC(=O)c3cccs3)o2)c(OC)c1	9.66
CC(C)(C)c1cc(C(=O)NNC(=O)c2ccc(C(F)(F)F)cc2)no1	9.67
Cn1nc(Cc2cccc3ccccc23)c(C#N)c1N	12.1
CCOc1ccc(-n2c(SCc3nc(-c4cccs4)no3)nnc2-c2ccncc2)cc1	-4.26
CCCCn1c(N)c(N(CCOC)C(=O)c2cc(S(=O)(=O)N3CCCCC3)ccc2C)c(=O)[nH]c1=O	15.4
CN(Cc1cnn(C)c1)C(=O)c1ccc(OC2CCN(CCc3ccccc3)CC2)cc1	-8.79
CC(Sc1nc(C2CC2)n(-c2ccccc2)n1)C(=O)c1c(N)n(C)c(=O)n(C)c1=O (stereo not shown)	-3.62
CN(CC(=O)Nc1cccc(F)c1)C(=O)c1cn2ccccc2n1	4.27
Cc1ccc(S(=O)(=O)N2CCOCC2)cc1NC(=O)c1cc([N+](=O)[O-])ccc1N1CCOCC1	3.27
O=C(COC(=O)/C=C/c1nc2ccccc2s1)Nc1ccccc1Oc1ccccc1	2.48
Cc1cccc(C(=O)NNC(=O)c2ccccc2O)c1	7.05
Cc1cccc(-c2nnc(SCc3ccc(C#N)cc3)n2Cc2ccco2)c1	-44
CCOc1ccc(NC(=O)CCC(=O)c2ccc(OC)cc2)cc1	16.1
CN(C1=C(NC(=O)c2ccccc2)C(=O)c2ccccc2C1=O)C1CCS(=O)(=O)C1 (stereo not shown)	-8.59

Structure (SMILES)	hERG current change (%, negative = inhibition) at 1uM [%]
c1ccc(-c2oc3ncnc(NCCN4CCOCC4)c3c2-c2ccccc2)cc1	9.8
CC1CCCN(CCCNC(=O)CCn2nc(-c3ccccc3)ccc2=O)C1 (stereo not shown)	-7.17
COc1ccc(NC(=O)OCC(C)C)cc1OC	10.7
Cc1ccc(S(=O)(=O)NC(C(=O)Oc2cc3oc(=O)cc(C)c3cc2Cl)C(C)C)cc1 (stereo not shown)	-9.51
Cc1cccc(N(CC(=O)NC2CCCCC2)C(=O)CCC(=O)Nc2ccccn2)c1	9.76
OCCN1CCOCCOCCN(CCO)CCN(CCO)CC1	16.7
Cc1ccnc(N2CCC(C(=O)NNC(=O)c3ccncc3)CC2)n1	-5.26
COc1ccc(S(=O)(=O)NC(C)C)cc1C(=O)NC1CCCCC1	11.4
O=[N+]([O-])c1cc(Br)c(O)c(C=Nc2ccc(N3CCOCC3)cc2)c1	17.4
COc1cccc(N(CC(=O)NC2CCCC2)C(=O)CCC(=O)Nc2nccs2)c1	13.7
O=C(Nc1cccc2cccnc12)c1ccc(Br)o1	-6.03
[O-][n+]1onc2c1CCc1[nH]c(-c3ccccc3)nc1-2	23
CC(=O)OC[C@H]1O[C@@H](n2ccc(=O)[nH]c2=S)C(OC(C)=O)C1OC(C)=O (stereo partly shown)	3.02
O=C(NCC(c1ccc(F)cc1)N1CCOCC1)c1ccccc1F (stereo not shown)	6.81
O=C(NNC(=O)c1cc2ccccc2oc1=O)c1ccccc1	8.75
COC(=O)c1ccccc1NC(=O)CN1CCN(C23CC4CC(CC(C4)C2)C3)CC1	-75
COc1cc(C#Cc2c(-c3ccccc3)n(C)c3ccccc23)cc(OC)c1	15.6
CCCCCCc1cc2cc(S(=O)(=O)c3ccc(F)cc3)c(=O)oc2cc1O	3.33
CC(=O)N1c2ccccc2[C@@H](C)[C@@H]1C	8.98
COCCn1c(COC)nc2ccccc21	-0.581
COc1cc([N+](=O)[O-])cc(/C=N/NC(=O)C(C)Nc2cccc3ccccc23)c1O (stereo not shown)	22.3
CN(c1ccc(C(=O)N2CCN(c3ccccc3F)CC2)cc1)S(=O)(=O)c1ccccc1	2.32

Structure (SMILES)	hERG current change (%, negative = inhibition) at 1uM [%]
CCOc1ccc(N(Cc2cc3ccc(C)cc3[nH]c2=O)S(=O)(=O)c2ccccc2)cc1	25.6
CCOC(=O)N1CCN(C(=O)c2ccc3c(=O)n(CC4CCCO4)c(=S)[nH]c3c2)CC1 (stereo not shown)	6.64
COc1ccc(C(=O)N2CCN(c3cccc(Cl)c3)CC2)c(OC)c1	-1.23
COc1ccc(NC(=O)c2ccc3c(c2)NC(=O)CS3)cc1S(=O)(=O)Nc1ccc(Br)cc1	7.64
CCN(CC)C(=O)C1CCCN(c2ccc([N+](=O)[O-])cc2/C=N/NC(=O)c2cccc([N+](=O)[O-])c2)C1 (stereo not shown)	-8.21
Cc1ccc(C(=O)N/C(=C\c2cccs2)C(=O)N2CCOCC2)cc1C	1.26
NC(=O)CC(NC(=O)c1ccccc1)C(=O)O (stereo not shown)	7.6
CCN(CC)C(=O)CSc1nc(C)cc(-c2cccs2)c1C#N	3.13
CCN(CCC(=O)Nc1cc(OC)cc(OC)c1)Cc1ccccc1	-12.1
CCOc1ccc(S(=O)(=O)Nc2ccc(S(=O)(=O)N3CCOCC3)cc2)cc1	4.9
COC(=O)c1ccc(NC2CC(=O)N(c3ccccc3C)C2=O)cc1 (stereo not shown)	0.934
Cc1ccccc1Cn1ccc(-c2ccc3c(c2)OCO3)n1	-11.2
COCCN1C(=S)NC(c2cccc(C(F)(F)F)c2)C(C(=O)N2CCOCC2)=C1C (stereo not shown)	11.6
Cc1cccc(NC(=O)c2cc([N+](=O)[O-])ccc2NCC2CCCO2)n1 (stereo not shown)	-46.9
CCOC(=O)Nc1c(O)ccc2oc(C)c(-c3ccccc3)c12	4.1
CC(C)C(NS(=O)(=O)c1cccc(C(F)(F)F)c1)C(=O)O (stereo not shown)	11.6
O=C(COC(=O)c1cccs1)NCCN1C(=O)CSC1=O	15.2
O=C(Cc1ccccc1)NCC(=O)N1CCN(c2ccccc2F)CC1	-2.88
Cc1c(NC(=O)c2ccccc2N)cccc1C(=O)O	18.6
C(=C\c1nccc2c1[nH]c1ccccc12)/c1ccccc1	3.22
O=C(CSc1nncn1-c1ccccc1)Nc1ccc(F)cc1F	16
CCOC(=O)c1c(NC(=O)CSc2nncn2C)sc(C)c1C	-5.95
